Experimental data: PubChem BioAssay AID624170 (National Center for Advancing Translational Sciences (NCATS), 2012)
Among all 410,000 compounds or so, about 850 (0.21%) were called active. Inconclusive results, whose numbers are uncertain, are shown with a selection of clear calls. The call rests on the fitted dose curve; in most records, active means well fitted inhibition curve with a large enough effect; inconclusive means small, poorly fitted or top-dose-only effect, or another doubt; inactive means no such curve, though single readings can be large or run the other way. No potency is given beside an inconclusive call; the fits are too rough.

target: Glutaminase kidney isoform, mitochondrial (Homo sapiens) (UniProt O94925); test: qHTS for Inhibitors of Glutaminase (GLS); conditions: GLS enzymatic activity, qHTS titration; series mostly up to 45.5 µM
Sequence of UniProt O94925 (O94925 whole entry, looked up, canonical isoform): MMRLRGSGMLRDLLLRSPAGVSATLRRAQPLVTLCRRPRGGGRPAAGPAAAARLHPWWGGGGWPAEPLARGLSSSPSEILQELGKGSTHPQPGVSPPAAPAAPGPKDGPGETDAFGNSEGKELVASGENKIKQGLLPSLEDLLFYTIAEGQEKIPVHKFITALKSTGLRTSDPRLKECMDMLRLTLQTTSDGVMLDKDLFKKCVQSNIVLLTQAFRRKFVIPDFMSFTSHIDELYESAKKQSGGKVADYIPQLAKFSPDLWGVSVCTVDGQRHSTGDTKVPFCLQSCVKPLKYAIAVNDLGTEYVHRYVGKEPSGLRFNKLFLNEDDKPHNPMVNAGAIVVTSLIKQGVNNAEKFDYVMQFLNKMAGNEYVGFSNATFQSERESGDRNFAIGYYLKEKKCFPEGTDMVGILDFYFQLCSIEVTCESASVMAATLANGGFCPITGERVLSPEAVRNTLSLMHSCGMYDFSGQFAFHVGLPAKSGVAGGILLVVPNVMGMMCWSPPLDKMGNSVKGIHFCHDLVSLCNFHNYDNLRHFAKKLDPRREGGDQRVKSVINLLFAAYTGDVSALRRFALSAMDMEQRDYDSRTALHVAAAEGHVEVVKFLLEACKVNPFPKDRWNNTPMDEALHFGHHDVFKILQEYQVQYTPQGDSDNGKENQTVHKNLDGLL
Method in brief: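 Human kidney-isoform GLS in 45 mM KH2PO4 pH 8.2, 0.02% Tween-20, with compound, started with 1mM L-Glutamine (added stock). Glutamate oxidase/HRP/Amplex red coupled fluorescence read at start and after 30 min at RT.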
Potency means the concentration at half of the fitted maximal effect; tags describe the fitted curve by direction and shape.

SMILES | Potency
O=C(Nc1ccc(S(=O)(=O)NCc2ccco2)cc1)c1ccc(F)cc1 | inconclusive [inhibitor, partial curve, poor fit]
O=C(O)c1ccc(-c2ccco2)n1Cc1ccccc1 | inconclusive [inhibitor, single point]
CC(C)Cc1nc2ccc(N)cc2[nH]1 | inconclusive [inhibitor, partial curve, poor fit]
C=CCn1c(-c2cccn(Cc3ccc(Cl)cc3Cl)c2=O)n[nH]c1=S | inconclusive [inhibitor, single point]
CCn1cc([N+](=O)[O-])c(C(=O)N2N=C(c3ccc(Cl)c(Cl)c3)CC2c2ccccc2O)n1 (stereo unspecified) | inactive
C=CCn1c(SCC(=O)Nc2ccc(O)cc2)nc2sc(CC)cc2c1=O | inconclusive [inhibitor, single point]
NS(=O)(=O)c1ccc(N=Nc2c(=O)[nH]n3c(=O)c4c([nH]c23)CCCC4)cc1 | inconclusive [inhibitor, single point]
CCC(c1ccccc1)C(CC)c1cc(O)c(O)c(O)c1 (stereo unspecified) | active: 11.2 µM
Cn1c(C(=O)N[C@@H](C(=O)O)c2ccccc2)cc2cc(Cl)ccc21 | inconclusive [inhibitor, single point]
COc1ccc2cc(S(=O)(=O)n3cnc(C)c3)ccc2c1 | inactive
COc1ccc(-c2cc(=O)c3c(O)cc(O[C@H]4OC(COC5OC(C)C(O)C(O)[C@H]5O)C(O)C(O)C4O)cc3o2)cc1O (stereo partly specified) | inconclusive [inhibitor, single point]
C=CCN(c1ccc(C(=O)Nc2ccc(NC(C)=O)cc2)cc1)S(C)(=O)=O | inconclusive [inhibitor, single point]
COc1ccc(C(=O)N[C@H](C(=O)Nc2ccc(S(=O)(=O)N3CCOCC3)cc2)C(C)C)cc1 | inactive
COc1ccc(NC(=O)O/N=C/c2ccccc2)cc1 | inactive
COc1ccc(C(=O)CC(=O)c2ccc(C(C)(C)C)cc2)cc1 | inconclusive [inhibitor, full curve, poor fit]
O=C(COc1ccccc1)Nc1cc(C(F)(F)F)ccc1N1CCCC1 | inactive
O=c1[nH]c(C2CCN(S(=O)(=O)c3ccccc3)CC2)nc2c1nnn2Cc1c(F)cccc1Cl | inconclusive [inhibitor, partial curve, poor fit]
O=C(NCC1CCCO1)c1ccc2c(c1)N(Cc1ccccc1)C(=O)CS2=O (stereo unspecified) | inconclusive [inhibitor, single point]
O=C(Nc1cccc(F)c1)c1ccc2oc(=O)n(Cc3ccccc3)c2c1 | inactive
CCOC(=O)c1ccc(OS(=O)(=O)c2ccccc2)c(OC)c1 | inconclusive [inhibitor, single point]
O=C(N/N=C/c1ccc(O)c(O)c1)c1ccc(-n2cnnn2)cc1 | inconclusive [inhibitor, single point]
O=C(NN=C1CCCCCC1)c1cc(-c2ccccc2)nc2ccccc12 | inconclusive [inhibitor, single point]
CC(=O)Nc1ccc(NCCc2ccco2)cc1 | inconclusive [inhibitor, full curve]
COc1cccc(C2N=C(c3ccccc3C)NO2)c1OC (stereo unspecified) | inconclusive [inhibitor, partial curve]

SMILES | Potency
CCCC1(c2ccccc2)NC(=O)N(CC(=O)N(C)Cc2c(F)cccc2Cl)C1=O (stereo unspecified) | inconclusive [inhibitor, single point]
Cc1ccc(CNC(=O)CSCc2ccccc2C)cc1 | inactive
COc1ccc(C(=O)N2CCCC(CO)(Cc3ccccc3C)C2)o1 (stereo unspecified) | inactive
COc1cccc(/C=N/NC(=S)Nc2cccc(C(=O)O)c2)c1O | inconclusive [inhibitor, full curve, poor fit]
Cc1nc2c(C(=O)NCc3ccccc3)cnn2c(C)c1Cc1ccc(F)cc1 | active: 12.6 µM
Nc1nonc1N/N=C\c1ccccc1 | inconclusive [inhibitor, partial curve]
COC(=O)c1nn(-c2ccccc2)nc1-c1nn(-c2ccccc2)nc1C(=O)OC | inconclusive [inhibitor, full curve, poor fit]
Cc1ccsc1CCN1C(=O)N(c2ccccc2)C(=O)C1CC(=O)Nc1ccc(F)cc1 (stereo unspecified) | inactive
Cc1ccc([N+](=O)[O-])cc1S(=O)(=O)Nc1ccc(N2CCOCC2)cc1 | inconclusive [inhibitor, partial curve, poor fit]
COc1cc2c(cc1OC)C(c1ccccc1)=NCC2 | inactive
O=C(NCc1ccco1)c1noc2c1CCCCC2 | inactive
Cc1ccc2[nH]c(C(=O)Nc3ccc(F)cc3)cc2c1 | inactive
O=C(c1ccc(C(F)(F)F)cc1)N1CCC(c2noc(-c3ccc(S(=O)(=O)N4CCCC4)cc3)n2)CC1 | inactive
COc1ccc(OC)c(-c2nc3c(C#N)c[nH]n3c2NC2CCCCC2)c1 | inconclusive [inhibitor, single point]
Nn1c(Nc2ccccc2)nc2sc3c(c2c1=O)CCCC3 | inconclusive [inhibitor, partial curve]
O=c1c2ccccc2sn1-c1ccccc1F | active: 7.94 µM
C/C(=N\Nc1ccc(C(=O)O)cc1)c1ccc(-n2ccnc2)cc1 | inconclusive [inhibitor, single point]
O=c1c(OC2OC(CO)C(O)C(O)C2OC2OC(CO)C(O)C(O)C2O)c(-c2ccc(O)cc2)oc2cc(O)cc(O)c12 (stereo unspecified) | inactive
CC1(C)SC2C(N3C(=O)C(c4ccccc4)NC3(C)C)C(=O)N2C1C(=O)O (stereo unspecified) | active: 28.2 µM
CC1=C(C)CS(=O)N(S(=O)(=O)c2ccccc2)C1 (stereo unspecified) | inactive
c1ccc(C2=Nn3c(nnc3-c3ccccn3)SC2)cc1 | inactive
CCN1CCN(CCCNC(=O)c2ccc(/C=C3/Sc4ccccc4N(Cc4ccccc4F)C3=O)cc2)CC1 | inactive
Cc1ccc(NC(=S)NNC(=O)c2nn(C)c(C)c2Cl)cc1 | inconclusive [inhibitor, partial curve]
CC(C)CCNC(=O)CCC(=O)NNc1nc2ccccc2c2nc(-c3ccccc3)nn12 | inconclusive [inhibitor, single point]

SMILES | Potency
CN1CCN(C(=O)c2ccc3c(=O)n(Cc4ccc(Cl)cc4)c(=S)[nH]c3c2)CC1 | inconclusive [inhibitor, partial curve]
OC(COCc1ccc(Cl)cc1)CN1CCN(CC(O)COCc2ccc(Cl)cc2)CC1 (stereo unspecified) | inconclusive [inhibitor, single point]
O=C(NCc1cccnc1)C1CCC(c2ccc(Cl)cc2)CC1 (stereo unspecified) | inactive
CC12CCC(C(=O)OC3CCCCC3)(OC1=O)C2(C)C (stereo unspecified) | inactive
COc1ccccc1NC(=O)COC(=O)C1CC2CCCC(C1)C2=O (stereo unspecified) | inconclusive [inhibitor, single point]
Cc1ccccc1-c1nn(-c2ccc(F)cc2F)cc1CNCCCN(C)C | active: 10 µM
Nc1ccc(Nc2nc(-c3cc4ccccc4oc3=O)cs2)cc1 | inconclusive [inhibitor, full curve]
CS(=O)(=O)N1CC(C(=O)O)Oc2ccc(CC(=O)O)cc21 (stereo unspecified) | inconclusive [inhibitor, partial curve, poor fit]
Cc1ccccc1CNC(=O)c1cnc2sc(N3CCOCC3)nn2c1=O | inconclusive [inhibitor, partial curve, poor fit]
COc1ccc(-c2csc(Nc3ccc(C)cn3)n2)cc1 | inconclusive [inhibitor, single point]
COc1cc(C2C(C#N)=C(N)N(c3cccnc3)C3=C2C(=O)CCC3)ccc1O (stereo unspecified) | inconclusive [inhibitor, partial curve]
CC(=O)c1cccc(N(C(=O)c2ccco2)C(C(=O)NC2CCCC2)c2ccccc2F)c1 (stereo unspecified) | inactive
COc1ccc(NC(=O)CSc2nc(-c3cccs3)cc(C(F)(F)F)n2)cc1OC | inactive
COc1ccc(-c2cc(C(=O)Nc3nc4ccccc4s3)c3ccccc3n2)cc1OC | inactive
O=c1[nH]c(S)nc2sc3c(c12)CCCC3 | inconclusive [inhibitor, single point]
COc1ccc(CN(C(=O)COc2ccccc2OC)C2CCS(=O)(=O)C2)cc1 (stereo unspecified) | inconclusive [inhibitor, single point]
O=C(NNc1ccc([N+](=O)[O-])cc1)c1ccccc1F | inconclusive [inhibitor, partial curve]
Cc1cc(C)c(C)c(S(=O)(=O)Nc2cccc(S(=O)(=O)Nc3ccccc3C(=O)O)c2)c1C | inconclusive [inhibitor, single point]
S=C(NNc1cccc(Cl)c1)NC1CCCCC1 | inconclusive [inhibitor, single point]
CCOC(=O)c1cc(-c2ccccc2)sc1NC(=O)C(C)C | inactive
O=C(CC1N=C2c3ccccc3N=C(SCc3ccc(Cl)cc3)N2C1=O)NCc1cccs1 (stereo unspecified) | inconclusive [inhibitor, single point]
CC(C)c1cc(NCC2CCCO2)n2c(nc3ccccc32)c1C#N (stereo unspecified) | inconclusive [inhibitor, partial curve, poor fit]
CC1CCC(NCC(=O)Nc2cccc(S(N)(=O)=O)c2)CC1 (stereo unspecified) | inactive
